Values marked as one replicate rest on one cluster of the flow cell; about a third of the high ones do not repeat.
Tested on: ATP
Experiment: switch fluorescence ratio, 500 uM ATP over buffer (Cy3 cluster intensity, sum of 5 cycles each) (fold (ratio)); higher = stronger signal-on switching upon ATP binding; sequences stand for … in TCGTCGGCAGCGTCAGATGTGTATAAGAGACAGTTTTTTTTTTTTTTTTTTTTTTTTT…TC
Conditions: aptamer strand: ATP DNA aptamer (quencher-CACCTGGGGGAGTATTGCGGAGGAAGG + anchor), 100 nM annealed; ATP concentration: 500 uM; one replicate
Summary of the method: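 Values give the fluorescence ratio for each switch-domain sequence, averaged from per-cluster ratios of summed target-cycle to summed buffer-cycle Cy3 intensity. The Cy3-labelled switching-strand clusters sat on a modified Illumina MiSeq flow-cell, were annealed to 100 nM quencher-labelled ATP aptamer, and were imaged in selection buffer, then after 15 min with 500 uM ATP at 22 °C. Five cycles ran with NaOH stripping and re-annealing between them, and clusters outside 100-1000 RFU were excluded.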
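Further: ATP exposure 15 min at 22 °C before imaging.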

In the case of GTAATGGATG, the switch fluorescence ratio is reported as 1.01.

TTGTGATGAC was tested, and the switch fluorescence ratio was 0.995.

CGGAACCCGC was tested, and the switch fluorescence ratio was 1.06.

Work on AATAATGTGT yielded a switch fluorescence ratio of 0.98.

Sequence GATAAGGTAA has a switch fluorescence ratio of 1.01.

AGGGACGTTA gave a switch fluorescence ratio of 1.12.

Sequence CATCATAAGA has a switch fluorescence ratio of 1.01.

In the case of CGTATGAGGT, the switch fluorescence ratio is reported as 1.

TTAGGAGTTA was tested, and the switch fluorescence ratio was 0.953.

GTAGCACGTC showed a switch fluorescence ratio of 1.08.

CTCGACGTT was tested, and the switch fluorescence ratio was 0.981.

AAAGGATTTT showed a switch fluorescence ratio of 0.997.

With TGCATGAGAA the switch fluorescence ratio was 0.975.

With TTTCGGTGCC the switch fluorescence ratio was 0.954.

In the case of CTACGGTAC, the switch fluorescence ratio is reported as 5.15.

AGGGTCCGT showed a switch fluorescence ratio of 0.998.

Work on AACCGATGTT yielded a switch fluorescence ratio of 1.02.

AGGTCGTGG showed a switch fluorescence ratio of 0.955.

TGTCTGGTCT showed a switch fluorescence ratio of 1.

CGTTATTTAG showed a switch fluorescence ratio of 1.02.

Work on CCGTTCTAGT yielded a switch fluorescence ratio of 0.998.

TAATGGCTAG gave a switch fluorescence ratio of 0.99.

In the case of AGTGCACGAC, the switch fluorescence ratio is reported as 1.02.

In the case of TTATTCTCTT, the switch fluorescence ratio is reported as 1.

Sequence GACACAGTTG has a switch fluorescence ratio of 1.01.

Sequence CCGCGGGATA has a switch fluorescence ratio of 1.07.

For AATTTTTTTA, the switch fluorescence ratio was 1.02.

Sequence CTTGTTATGA has a switch fluorescence ratio of 0.957.

Sequence AAACGTTGAC has a switch fluorescence ratio of 1.14.

CATCGAGACA gave a switch fluorescence ratio of 1.02.

CAACTTTATA gave a switch fluorescence ratio of 1.02.

With AGCGACACGA the switch fluorescence ratio was 1.12.

In the case of ATTAGTCCTA, the switch fluorescence ratio is reported as 1.02.

TTCTAGGGTA was tested, and the switch fluorescence ratio was 1.04.

GCCATTACAG gave a switch fluorescence ratio of 1.03.

For GCACAGGTTT, the switch fluorescence ratio was 1.73.

In the case of AGTGATAGCA, the switch fluorescence ratio is reported as 1.03.

ATTTTCTCTA was tested, and the switch fluorescence ratio was 0.987.

In the case of TTCTAGGAAC, the switch fluorescence ratio is reported as 1.02.

With AGGCGTTCGA the switch fluorescence ratio was 0.994.

ATGTGAACTT gave a switch fluorescence ratio of 1.04.

In the case of CCACAACCGC, the switch fluorescence ratio is reported as 1.23.

CCAGAATCGC showed a switch fluorescence ratio of 1.04.

TTTGAACC gave a switch fluorescence ratio of 0.98.

GTTACATTAG was tested, and the switch fluorescence ratio was 1.05.

Sequence TTTACCTCGG has a switch fluorescence ratio of 1.03.

With TCTTTTTCAA the switch fluorescence ratio was 1.04.

For CGAATACCGG, the switch fluorescence ratio was 1.02.

In the case of TTGTCACTTG, the switch fluorescence ratio is reported as 1.01.

GGACAGTCTT gave a switch fluorescence ratio of 1.02.

In the case of GATGGTACGG, the switch fluorescence ratio is reported as 0.994.

For GTAGTCACTA, the switch fluorescence ratio was 0.973.

For GGCTCTGTCT, the switch fluorescence ratio was 0.983.

With GATTTGGCGT the switch fluorescence ratio was 1.14.

GAGCGTCCGT gave a switch fluorescence ratio of 0.953.

CGCAATTCGT gave a switch fluorescence ratio of 5.32.

Work on GCATTGCGAG yielded a switch fluorescence ratio of 1.09.

Sequence ATAAACTATG has a switch fluorescence ratio of 0.987.

Work on TCAAATTGTG yielded a switch fluorescence ratio of 1.02.

With TGAGAAACGG the switch fluorescence ratio was 1.01.

For AAAGAGGACA, the switch fluorescence ratio was 1.04.

TACTCCGGTA was tested, and the switch fluorescence ratio was 3.2.

In the case of TTACACCGA, the switch fluorescence ratio is reported as 1.2.

GCAGCCCTTG showed a switch fluorescence ratio of 0.972.

Sequence TAAAGTCGCT has a switch fluorescence ratio of 0.966.

In the case of GAAACAATGT, the switch fluorescence ratio is reported as 1.04.

ATTACGAATA showed a switch fluorescence ratio of 1.07.

For CGTCTTGGG, the switch fluorescence ratio was 0.972.

For TGGGCTTCCA, the switch fluorescence ratio was 1.01.

For GCCTCTTCGT, the switch fluorescence ratio was 1.01.

For CTTCCGTTGT, the switch fluorescence ratio was 1.44.

For TAAACCGTAT, the switch fluorescence ratio was 1.06.

Work on CCAGATCGAT yielded a switch fluorescence ratio of 1.06.

TGACTAACGG gave a switch fluorescence ratio of 1.08.

CAGGGTCTCC showed a switch fluorescence ratio of 0.966.

CAGGGTGTTC showed a switch fluorescence ratio of 0.999.

For CTGTATTTAA, the switch fluorescence ratio was 0.978.

Sequence GCCACTTTTG has a switch fluorescence ratio of 1.01.

In the case of CGCGCGTCTT, the switch fluorescence ratio is reported as 1.02.

CCAGTGTGAA was tested, and the switch fluorescence ratio was 1.12.

In the case of GCTGTGTAGT, the switch fluorescence ratio is reported as 0.993.

Work on ACATGGATAC yielded a switch fluorescence ratio of 1.13.

For GCTACTCTTG, the switch fluorescence ratio was 1.08.

AAGACAGTT gave a switch fluorescence ratio of 1.03.

For ATATTCGTCT, the switch fluorescence ratio was 1.05.

CGGGCGCTCT gave a switch fluorescence ratio of 1.03.

With AGTATGGGT the switch fluorescence ratio was 0.966.

Work on GTGAGAGGGA yielded a switch fluorescence ratio of 1.01.

GGTTATAATA showed a switch fluorescence ratio of 0.996.

Work on AGGCAACGGC yielded a switch fluorescence ratio of 1.05.

GGGTGGAGAG was tested, and the switch fluorescence ratio was 0.965.

For ATTAGTAGAG, the switch fluorescence ratio was 1.03.

In the case of TGTTGATTCG, the switch fluorescence ratio is reported as 1.

With TTGCCGAT the switch fluorescence ratio was 0.928.

TGCGGAAGGT was tested, and the switch fluorescence ratio was 1.01.

GTACCAAGGG showed a switch fluorescence ratio of 1.12.

Sequence TCCTGGTTGA has a switch fluorescence ratio of 1.03.

TCCCGCTCGT was tested, and the switch fluorescence ratio was 1.1.

Work on TATTCAGTGG yielded a switch fluorescence ratio of 1.02.

Work on CGTATTGACT yielded a switch fluorescence ratio of 1.01.

In the case of GACTAGAGCA, the switch fluorescence ratio is reported as 1.14.

TCAGGATAGT was tested, and the switch fluorescence ratio was 1.

In the case of GACGTACAGC, the switch fluorescence ratio is reported as 1.8.

For CCTGGGTAGG, the switch fluorescence ratio was 1.02.

Work on TAGTTAGTCG yielded a switch fluorescence ratio of 0.942.

For GGGGCTACAG, the switch fluorescence ratio was 1.03.

TGTCTATAGC gave a switch fluorescence ratio of 1.02.

For TCCATGTGGA, the switch fluorescence ratio was 0.993.

With CCTCGGAAGA the switch fluorescence ratio was 1.81.

With ATTGATGATG the switch fluorescence ratio was 0.981.

Sequence CTGATTAGTC has a switch fluorescence ratio of 1.

CGATACGTCC showed a switch fluorescence ratio of 1.05.

Sequence CTTCCGACCT has a switch fluorescence ratio of 4.08.

With TATCGCCCCG the switch fluorescence ratio was 1.04.

GGCGATAGCG gave a switch fluorescence ratio of 1.01.

TGGCCATTAG gave a switch fluorescence ratio of 0.998.

CTCTGGGCAA showed a switch fluorescence ratio of 4.52.

Sequence ACGACGGCAA has a switch fluorescence ratio of 5.3.

With GGTTGCATAA the switch fluorescence ratio was 1.04.

AACTGGTACG showed a switch fluorescence ratio of 1.06.

For CCCTCCATGA, the switch fluorescence ratio was 1.32.

With ACTTTTA the switch fluorescence ratio was 0.993.

CTCCACCTAT was tested, and the switch fluorescence ratio was 1.16.

Work on GATAAAAAAT yielded a switch fluorescence ratio of 0.971.

GCCCCATTAG was tested, and the switch fluorescence ratio was 1.07.

Sequence AGGAAGTCAT has a switch fluorescence ratio of 1.

With TAACTAAAAT the switch fluorescence ratio was 0.998.

Sequence CACGTAGGCA has a switch fluorescence ratio of 1.07.

CCGCTTGCAG was tested, and the switch fluorescence ratio was 1.28.

Sequence ATAGGTCGTC has a switch fluorescence ratio of 0.992.

AAAATGAGGG showed a switch fluorescence ratio of 0.978.

ATCGATTAGA gave a switch fluorescence ratio of 0.971.

Sequence CTCATGGTCG has a switch fluorescence ratio of 1.06.

Work on CCGAGTATTG yielded a switch fluorescence ratio of 1.16.

Sequence TTGCGATGTT has a switch fluorescence ratio of 1.03.

For ATTATTTTCC, the switch fluorescence ratio was 1.05.

Work on TACCCGTCTC yielded a switch fluorescence ratio of 1.02.

Work on GATTCTATTC yielded a switch fluorescence ratio of 1.04.

Work on TTTCTGAGTA yielded a switch fluorescence ratio of 0.965.

Sequence GATAAGAGAC has a switch fluorescence ratio of 1.09.

In the case of GCCGAAAAAT, the switch fluorescence ratio is reported as 0.972.

With GTGCGTAATG the switch fluorescence ratio was 1.03.

Sequence ATTCACCCAT has a switch fluorescence ratio of 1.1.

TGCTGCTCCA gave a switch fluorescence ratio of 1.13.

Work on TAAAGCTTCT yielded a switch fluorescence ratio of 1.57.

Work on TCGGCCCTTG yielded a switch fluorescence ratio of 0.997.

With CGAAAGACGT the switch fluorescence ratio was 1.01.

With CGGTTGT the switch fluorescence ratio was 0.981.

GGGAGCGTCG gave a switch fluorescence ratio of 0.94.

GAGACTATAT was tested, and the switch fluorescence ratio was 1.04.

With TGAGGAGTCG the switch fluorescence ratio was 1.01.

Sequence GGCGTGGTCG has a switch fluorescence ratio of 1.05.

Work on CCGGCTCTAC yielded a switch fluorescence ratio of 3.58.

CAGCGTAGGA showed a switch fluorescence ratio of 0.999.

GTGAGTTTTC showed a switch fluorescence ratio of 1.01.

In the case of AAGAACTGTG, the switch fluorescence ratio is reported as 1.11.

Work on CGATTGTGCT yielded a switch fluorescence ratio of 0.936.

For TCGGCGCAG, the switch fluorescence ratio was 1.07.

In the case of GCAGCGTGTC, the switch fluorescence ratio is reported as 1.05.

CGGAGGAGGT showed a switch fluorescence ratio of 1.

Work on CTAAGGTACC yielded a switch fluorescence ratio of 1.05.

With GTTGAGCCAT the switch fluorescence ratio was 0.989.

In the case of AGTCAGCCGC, the switch fluorescence ratio is reported as 1.06.

GTGTATCTG was tested, and the switch fluorescence ratio was 0.997.

For ATACTTCTTT, the switch fluorescence ratio was 1.02.

Sequence CATGCGTGAA has a switch fluorescence ratio of 0.999.

For TAGTTTTCAA, the switch fluorescence ratio was 1.01.

Work on ATACCGGGTG yielded a switch fluorescence ratio of 3.16.

For TGTTCTCATT, the switch fluorescence ratio was 1.02.

For GTTCAAGAAT, the switch fluorescence ratio was 0.981.

TGGGGACGA showed a switch fluorescence ratio of 0.986.

With ATGGTGACAG the switch fluorescence ratio was 0.97.

TAGAACATCG showed a switch fluorescence ratio of 1.04.

Sequence ATCAGGGGTG has a switch fluorescence ratio of 1.07.

CACACTCTTC showed a switch fluorescence ratio of 0.966.

In the case of GCACACGGTG, the switch fluorescence ratio is reported as 1.08.

For AAGTAAAGTG, the switch fluorescence ratio was 1.09.

For GGTCCAAGCC, the switch fluorescence ratio was 0.996.

Work on AATCAGTGG yielded a switch fluorescence ratio of 1.

In the case of TGTAGGGAAT, the switch fluorescence ratio is reported as 1.02.

For TGGATATCTC, the switch fluorescence ratio was 1.02.

With TTGTAAGTTC the switch fluorescence ratio was 0.951.

With CTAGGTTTCT the switch fluorescence ratio was 0.99.

With AGGGTTTGCA the switch fluorescence ratio was 0.983.

CGTCGTCTAT gave a switch fluorescence ratio of 1.03.

GTTAATTGTT gave a switch fluorescence ratio of 0.945.

GGCCGCTGTG showed a switch fluorescence ratio of 1.03.

Work on CCGTTACCGT yielded a switch fluorescence ratio of 1.02.

With TACTTTGTT the switch fluorescence ratio was 0.984.

Sequence GCTCCCTTGA has a switch fluorescence ratio of 1.14.

AGTCTGAGGG gave a switch fluorescence ratio of 0.973.

Work on GTTTACCTT yielded a switch fluorescence ratio of 1.05.

Work on CAAGATCGTA yielded a switch fluorescence ratio of 0.958.

ATGCGCTGGT gave a switch fluorescence ratio of 1.

TTGATACTC gave a switch fluorescence ratio of 1.25.

Sequence GACATCCGGA has a switch fluorescence ratio of 0.995.

In the case of AACCGGAGGT, the switch fluorescence ratio is reported as 0.982.

AGGTCAGAGC was tested, and the switch fluorescence ratio was 1.01.

For ATAGCATGAG, the switch fluorescence ratio was 1.03.

ATATTTAGCA gave a switch fluorescence ratio of 1.03.

Work on ATGGATTGGG yielded a switch fluorescence ratio of 0.987.
